Measurements taken from article PMC5700166.
The list shows a part of the results, in another mix than the full data. For part of these data: The list includes weakly bound sequences.

Columns and labels:
Assay in all cases: protein-binding microarray (PBM)
Details in all cases: PBM: ~300 nM protein, 6 mM HEPES pH 7.8, 80 mM KCl, 0.5 mM EDTA, 0.5 mM EGTA, 6% glycerol, 35 ng/ul poly-dIdC, 1% milk, 1 h, room temperature; Ap Aiptasia and Nv Nematostella (sea anemones) / Co Capsaspora / Aq Amphimedon (sponge) / Dm Drosophila / Hu human; RHD is the Rel homology domain; high values mean tight binding; most listed sequences are background and not binding sites; double strand, one strand shown
GST-Ap-NF-kB RHD = biological target: T1, GST-Ap-NF-kB RHD (UniProt A0A913YAJ5)
T1 sequence: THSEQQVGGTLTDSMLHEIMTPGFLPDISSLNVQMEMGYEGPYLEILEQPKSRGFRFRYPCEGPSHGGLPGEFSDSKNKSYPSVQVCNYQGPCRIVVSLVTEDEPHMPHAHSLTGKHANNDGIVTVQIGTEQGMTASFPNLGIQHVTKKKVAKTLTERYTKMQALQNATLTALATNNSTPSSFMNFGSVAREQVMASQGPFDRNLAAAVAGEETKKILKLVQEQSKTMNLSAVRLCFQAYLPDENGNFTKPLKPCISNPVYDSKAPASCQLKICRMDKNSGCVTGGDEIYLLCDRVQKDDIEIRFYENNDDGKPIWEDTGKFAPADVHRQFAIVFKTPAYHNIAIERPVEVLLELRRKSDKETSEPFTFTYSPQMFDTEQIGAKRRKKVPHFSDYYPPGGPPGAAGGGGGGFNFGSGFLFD

GST-Co-NF-kB = biological target: T2, GST-Co-NF-kB (UniProt F1ARL5)
T2 sequence: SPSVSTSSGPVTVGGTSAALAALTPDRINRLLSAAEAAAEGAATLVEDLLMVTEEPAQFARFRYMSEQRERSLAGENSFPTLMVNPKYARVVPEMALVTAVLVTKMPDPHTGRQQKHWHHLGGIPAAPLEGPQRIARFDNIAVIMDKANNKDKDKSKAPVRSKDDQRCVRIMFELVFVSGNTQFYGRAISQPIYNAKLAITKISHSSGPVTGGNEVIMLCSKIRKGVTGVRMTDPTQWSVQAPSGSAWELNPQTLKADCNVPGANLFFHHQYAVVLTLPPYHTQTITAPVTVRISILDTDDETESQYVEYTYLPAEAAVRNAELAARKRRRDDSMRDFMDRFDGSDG

GST-Dm-Relish = biological target: T3, GST-Dm-Relish (UniProt Q94527)
T3 sequence: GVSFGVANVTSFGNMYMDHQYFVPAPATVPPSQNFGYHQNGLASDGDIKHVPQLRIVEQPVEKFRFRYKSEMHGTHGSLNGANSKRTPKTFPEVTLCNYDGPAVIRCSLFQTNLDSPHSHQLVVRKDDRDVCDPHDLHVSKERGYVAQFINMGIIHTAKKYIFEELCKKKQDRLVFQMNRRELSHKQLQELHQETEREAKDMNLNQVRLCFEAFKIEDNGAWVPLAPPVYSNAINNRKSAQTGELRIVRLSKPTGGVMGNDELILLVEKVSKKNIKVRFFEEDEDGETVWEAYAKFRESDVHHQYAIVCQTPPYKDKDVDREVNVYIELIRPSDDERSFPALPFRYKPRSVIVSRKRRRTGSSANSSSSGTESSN

| Sequence | binding signal (GST-Ap-NF-kB RHD) [z-score] | binding signal (GST-Co-NF-kB) [z-score] | binding signal (GST-Dm-Relish) [z-score] |
| --- | --- | --- | --- |
| CCGATTAACATCAGGGAACTACATGATGTTAATCGGGTCTTGATTCGCTTGACGCTGCTG | 1.52 | 1.62 | – |
| CCGATTAACATCAGGGAATGCCCTGATGTTAATCGGGTCTTGATTCGCTTGACGCTGCTG | 5.58 | 1.43 | – |
| CCGATTAACATCAGGGAAATCACTGATGTTAATCGGGTCTTGATTCGCTTGACGCTGCTG | 3.41 | 2.62 | – |
| CCGATTAACATCAAGGTGTTTCCTGATGTTAATCGGGTCTTGATTCGCTTGACGCTGCTG | 1.56 | -0.13 | – |
| CCGATTAACATCAATGGGATTCCTGATGTTAATCGGGTCTTGATTCGCTTGACGCTGCTG | 1.54 | 0.943 | 7.4 |
| CCGATTAACATCAGAGGATTCCCTGATGTTAATCGGGTCTTGATTCGCTTGACGCTGCTG | 3.72 | 2.44 | – |
| CCGATTAACATCAAATTTCCCCCTGATGTTAATCGGGTCTTGATTCGCTTGACGCTGCTG | 9.03 | 12.3 | – |
